Data: PubChem BioAssay AID1347165 (National Center for Advancing Translational Sciences (NCATS), 2019)
The whole screen tested about 220,000 compounds, of which about 5,700 (2.6%) were called active. This list was built around the results that the source calls inconclusive (neither active nor inactive); the mix of calls is not that of the screen. Calls come from the whole dose curve; as a rule, active = well fitted inhibition curve with a large enough effect; inconclusive = small, poorly fitted or top-dose-only effect; inactive = no such curve, though single readings can be large or run the other way. Potencies of inconclusive entries are doubtful fits and often do not repeat.

Target: Lysine-specific demethylase 5B (Homo sapiens) (UniProt Q9UGL1)
Chain of UniProt Q9UGL1 (Q9UGL1 whole entry, looked up): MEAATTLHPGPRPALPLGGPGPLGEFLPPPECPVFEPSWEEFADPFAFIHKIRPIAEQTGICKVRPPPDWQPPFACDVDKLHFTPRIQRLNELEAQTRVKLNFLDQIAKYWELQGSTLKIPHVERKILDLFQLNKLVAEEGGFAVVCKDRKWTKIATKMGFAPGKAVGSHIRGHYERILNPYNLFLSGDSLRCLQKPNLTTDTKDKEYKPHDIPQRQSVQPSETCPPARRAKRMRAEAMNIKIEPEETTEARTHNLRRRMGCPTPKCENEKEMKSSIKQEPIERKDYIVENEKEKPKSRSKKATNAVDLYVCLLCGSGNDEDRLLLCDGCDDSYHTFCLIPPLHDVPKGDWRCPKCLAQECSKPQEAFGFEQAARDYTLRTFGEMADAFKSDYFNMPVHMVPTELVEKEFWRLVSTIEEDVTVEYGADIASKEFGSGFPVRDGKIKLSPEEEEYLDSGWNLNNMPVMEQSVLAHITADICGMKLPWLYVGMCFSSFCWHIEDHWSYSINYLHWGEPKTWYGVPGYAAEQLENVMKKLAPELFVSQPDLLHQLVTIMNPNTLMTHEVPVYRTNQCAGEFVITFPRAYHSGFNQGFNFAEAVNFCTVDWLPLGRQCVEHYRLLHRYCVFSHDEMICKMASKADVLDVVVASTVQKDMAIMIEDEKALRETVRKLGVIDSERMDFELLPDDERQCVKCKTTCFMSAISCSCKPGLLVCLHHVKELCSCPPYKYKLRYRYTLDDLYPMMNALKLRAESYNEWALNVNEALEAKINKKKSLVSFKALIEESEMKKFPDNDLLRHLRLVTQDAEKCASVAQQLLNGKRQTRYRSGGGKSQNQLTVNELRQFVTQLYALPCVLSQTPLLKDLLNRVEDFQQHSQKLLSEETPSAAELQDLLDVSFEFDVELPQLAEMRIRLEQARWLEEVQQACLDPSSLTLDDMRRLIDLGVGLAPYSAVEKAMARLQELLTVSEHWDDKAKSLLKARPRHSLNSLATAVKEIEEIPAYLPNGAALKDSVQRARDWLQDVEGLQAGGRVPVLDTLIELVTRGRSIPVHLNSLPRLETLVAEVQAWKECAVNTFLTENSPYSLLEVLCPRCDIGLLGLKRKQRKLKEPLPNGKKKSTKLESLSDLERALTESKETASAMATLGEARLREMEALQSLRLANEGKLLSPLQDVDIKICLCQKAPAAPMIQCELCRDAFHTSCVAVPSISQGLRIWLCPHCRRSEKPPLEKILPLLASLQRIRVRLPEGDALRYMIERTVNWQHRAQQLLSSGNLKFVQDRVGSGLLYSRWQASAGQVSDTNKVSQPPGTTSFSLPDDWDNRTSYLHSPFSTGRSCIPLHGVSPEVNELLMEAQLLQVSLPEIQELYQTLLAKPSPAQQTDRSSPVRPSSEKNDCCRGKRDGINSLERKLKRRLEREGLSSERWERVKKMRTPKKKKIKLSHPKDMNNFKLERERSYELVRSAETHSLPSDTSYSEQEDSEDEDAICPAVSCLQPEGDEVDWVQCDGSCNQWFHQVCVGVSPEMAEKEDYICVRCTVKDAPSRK
Assay: Primary screen for KDM5B Histone Demethylases FDH-coupled qHTS; note: nearly all actives have a fitted effect of over 70% in size; for activity change, negative = inhibition: 0% is about no effect
Details: FDH-coupled NADH fluorescence (FDH is formaldehyde dehydrogenase); activity change, negative = inhibition: at 57.7 µM (top of the series) unless noted
In short: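 Here, H3K4me3 peptide (12.5 µM in substrate mix) is demethylated by KDM5BΔAP, 200 nM final, after 10 min compound exposure. Formaldehyde product is coupled through FDH (0.25 U/mL in mix) to NADH fluorescence; 30-min ΔRFU feeds dose-response curves.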
Potency is the fitted concentration of half-maximal effect; tags give direction and shape of the fitted curve.

**Q.** How did the “activity change, negative = inhibition” value turn out when `CCc1ccc(NC(=O)Cn2c(=O)n(-c3cccc(OC)c3)c(=O)c3c(C)c(C(=O)N(C)C)sc32)cc1` was run?
**A.** inactive: -5.49%

**Q.** Which “activity change, negative = inhibition” value does the source give for `CN1C(=O)CCCCC1C(=O)N1CCc2ccccc21` (centres undefined) here?
**A.** inactive: 14.3%

**Q.** For `COc1cccc(CC(=O)NCc2nnc3cc(-c4nc(C(C)C)no4)ccn23)c1`, which Potency is on record?
**A.** active: 28.2 µM

**Q.** With `COc1ccc(-c2cc(N3CCN(C(=O)Cc4cccc(C)c4)CC3)n[nH]2)cc1` as the compound, how does the “activity change, negative = inhibition” value read?
**A.** inactive: -19.7%

**Q.** For `CN(C)Cc1nnc(C2CC(NC(=O)Cc3noc4ccccc34)C2)n1C` (centres undefined), which Potency is on record?
**A.** inconclusive: 10 µM [inhibitor, partial curve, poor fit]

**Q.** How did the “activity change, negative = inhibition” value turn out when `Cn1nc(C(=O)NCCN2CCCCCC2)c2c1-c1ccccc1OC2` was run?
**A.** inactive: -17.2%

**Q.** Which Potency does the source give for `CN1CCCCCC(O)c2cc(C(=O)NCCCN3CCCC3=O)ccc21` (centres undefined) here?
**A.** inconclusive: 20 µM [inhibitor, single point]

**Q.** For `O=C(c1ccc(Br)cc1)N(Cc1ccco1)c1ccccn1`, which activity change, negative = inhibition is on record?
**A.** inconclusive: -34.5% [inhibitor]

**Q.** With `C[n+]1cccc(C(=O)N=S(C)C)c1` as the compound, how does the “activity change, negative = inhibition” value read?
**A.** inactive: 11.6%

**Q.** `O=C(CCc1ncc(-c2ccc(Cl)cc2)o1)Nc1cc(F)cc(F)c1` was tested. Which Potency did it give?
**A.** inconclusive: 28.2 µM [inhibitor, partial curve, poor fit]

**Q.** `O=C(O)CSc1ccc2c(c1)OCCO2` was tested. Which “activity change, negative = inhibition” value did it give?
**A.** inactive: -2.39%

**Q.** `CCN(CC)CCN1C(=O)c2ccccc2NC1c1ccccc1F` (centres undefined) was tested. Which Potency did it give?
**A.** inconclusive: 28.2 µM [inhibitor, partial curve, poor fit]

**Q.** For `CCc1cccc(NC(=O)C2CCCN2S(=O)(=O)c2ccc3nc(-c4ccccc4)[nH]c3c2)c1` (centres undefined), which Potency is on record?
**A.** inconclusive: 39.8 µM [inhibitor, single point]

**Q.** `CC(=O)NCCc1ccc(-c2csc(-c3ccc(C)cc3)n2)s1` was tested. Which Potency did it give?
**A.** inconclusive: 39.8 µM [inhibitor, single point]

**Q.** `O=C(c1sccc1-c1ccccc1)N1CCN(S(=O)(=O)c2ccc(F)cc2F)CC1` was tested. Which “activity change, negative = inhibition” value did it give?
**A.** inactive: 11.1%

**Q.** With `COc1ncccc1-c1cc2c(nc1OC)nc(CCc1ccccc1)n2C` as the compound, how does the Potency read?
**A.** inconclusive: 35.5 µM [inhibitor, single point]

**Q.** How did the “activity change, negative = inhibition” value turn out when `O=C(CCC(=O)OCc1ccc(Br)cc1)Nc1ccc2c(c1)oc1ccccc12` was run?
**A.** inactive: 19.4%

**Q.** How did the Potency turn out when `COc1ccc(OC)c([C@@H]2Nc3ccc(C(=O)O)cc3[C@@H]3C=CC[C@@H]32)c1` was run?
**A.** inconclusive: 17.8 µM [inhibitor, single point]

**Q.** With `CCc1cccc(NC(=O)c2cc3c(=O)oc4ccc(C)cc4c3s2)c1` as the compound, how does the Potency read?
**A.** inconclusive: 2.24 µM [inhibitor, full curve, poor fit]

**Q.** With `COc1ccc(CNC(=O)C(CC(C)C)NS(=O)(=O)c2ccc3c(c2)oc(=O)n3C)cc1` (centres undefined) as the compound, how does the Potency read?
**A.** inconclusive: 2 µM [inhibitor, full curve, poor fit]

**Q.** How did the Potency turn out when `COc1ccc(Cl)cc1-c1ccc2c(c1)C(=O)N1CC[C@H](NC(=O)c3cccs3)C[C@H]1C(=O)N2` was run?
**A.** inconclusive: 31.6 µM [inhibitor, single point]

**Q.** For `Cc1ccc(C)c(S(=O)(=O)c2nnn3c2nc(NC2CCCC2)c2sccc23)c1`, which Potency is on record?
**A.** inconclusive: 44.7 µM [inhibitor, single point]

**Q.** Which Potency does the source give for `CCCC(=O)Oc1ccc2oc(-c3ccc(OC)cc3)cc(=O)c2c1` here?
**A.** inconclusive: 2 µM [inhibitor, full curve, poor fit]

**Q.** Which Potency does the source give for `N#Cc1c(NCc2ccncc2)nc(-c2ccccc2)c2c1CCCC2` here?
**A.** inconclusive: 28.2 µM [inhibitor, partial curve, poor fit]

**Q.** With `COc1ccc(-c2nn(-c3ccccc3)cc2CN2CCCC(C#N)C2)c(F)c1` (centres undefined) as the compound, how does the Potency read?
**A.** inconclusive: 7.08 µM [inhibitor, partial curve, poor fit]

**Q.** How did the “activity change, negative = inhibition” value turn out when `Cc1cc(NC(=O)N(Cc2ccco2)Cc2cccs2)no1` was run?
**A.** inactive: 5.11%

**Q.** Which “activity change, negative = inhibition” value does the source give for `COc1ccc(C(=O)N2CCCC3(C2)NC(=O)N(Cc2ccc(C)cc2)C3=O)cc1` (centres undefined) here?
**A.** inactive: -7.36%

**Q.** For `N#CC(C(=O)/C=C/c1ccccc1)c1ccc(C(F)(F)F)cn1` (centres undefined), which Potency is on record?
**A.** inconclusive: 35.5 µM [inhibitor, partial curve, poor fit]

**Q.** `CCCn1cc(CN2CCC(n3nccc3NC(=O)c3ccccc3)CC2)c(C)n1` was tested. Which “activity change, negative = inhibition” value did it give?
**A.** inactive: 20.2%

**Q.** For `Cc1ccccc1/C=C1\C(=O)Nc2ccc(F)cc21`, which “activity change, negative = inhibition” value is on record?
**A.** inactive: 10.7%

**Q.** Which “activity change, negative = inhibition” value does the source give for `CC(=O)c1ccc(NC(=O)C(C)Sc2ccccc2C(=O)NCC(=O)C(C)(C)C)cc1` (centres undefined) here?
**A.** inactive: 10.8%

**Q.** `COc1ccc(N2CCN(C(=O)c3cnc(N4CCOCC4)c4ccccc34)CC2)cc1` was tested. Which Potency did it give?
**A.** inconclusive: 25.1 µM [inhibitor, partial curve, poor fit]

**Q.** For `CN1Cc2cccn2CC1CNC(=O)NC1CCCCC1` (centres undefined), which Potency is on record?
**A.** active: 28.2 µM

**Q.** `Cc1c(Cl)cccc1NC(=S)NCCc1ccccc1` was tested. Which “activity change, negative = inhibition” value did it give?
**A.** inactive: -18.2%
